# ± gives the standard deviation of the averaged measurements. The full ranking holds about 33,000 sequences; the median of “E-score (dimensionless, -0.5 to 0.5)” is about -0.046, and the highest 2% start at about 0.36. Some of the results follow.
# Test system: T1, SpTbr T-box DNA-binding domain (GST fusion)
# T1 sequence: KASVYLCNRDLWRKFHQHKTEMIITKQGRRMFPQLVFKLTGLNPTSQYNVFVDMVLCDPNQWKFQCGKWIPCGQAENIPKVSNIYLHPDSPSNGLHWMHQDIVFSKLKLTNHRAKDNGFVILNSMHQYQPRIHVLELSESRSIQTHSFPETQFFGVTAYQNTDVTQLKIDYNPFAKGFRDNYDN
# Assay: PBM E-score of 8-mer (E-score (dimensionless, -0.5 to 0.5)); Tbr is Tbrain of the sea star Patiria miniata (Pm) or the sea urchin Strongylocentrotus purpuratus (Sp); higher = stronger binding preference; most listed sequences are background and not binding sites
# Settings: the construct has about 5 more residues each side
# Method in brief: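 Primer extension turned Universal Agilent oligonucleotide arrays double-stranded. They were incubated with 200 nM protein in PBS (pH 7.5); the protein was a GST-fused Tbr T-box DNA-binding domain expressed in BL21 E. coli at 20 °C and purified on glutathione. Every ungapped 8-mer was scored from the scanned, quantified probe intensities, and the Universal PBM Analysis Suite gave each an enrichment E-score averaged over duplicate arrays.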
row,Sequence,PBM E-score of 8-mer
1,ACAGTTTG,0.207 ± 0.011
2,ATTTTGAG,-0.236 ± 0.042
3,CGGTCACC,0.0651 ± 0.051
4,AGCGGGCA,-0.0395 ± 0.016
5,ACTGTACG,-0.09 ± 0.021
6,CAAGCCAG,-0.244 ± 0.0068
7,AGCCTATC,-0.168 ± 0.1
8,CAAATGGA,-0.0481 ± 0.054
9,CCGTACAA,-0.197 ± 0.0048
10,CGAGCCAG,-0.178 ± 0.036
11,ATAACGTG,0.19 ± 0.0011
12,ACACTGGT,0.124 ± 0.061
13,AATCCACC,-0.0595 ± 0.05
14,GCTCCATA,-0.315 ± 0.018
15,CGTGCTCC,-0.186 ± 0.027
16,ATTATCGG,-0.0103 ± 0.047
17,GGGAGTCA,0.032 ± 0.043
18,ACCCCGGG,-0.021 ± 0.06
19,GACAGAAC,-0.0696 ± 0.06
20,CTGCAAGA,-0.152 ± 0.095
21,ATAACCAT,-0.00221 ± 0.0059
22,ACCCCATG,-0.0417 ± 0.088
23,CAAAGAAA,-0.247 ± 0.013
24,TTCCGGAA,-0.324 ± 0.027
25,GACTGACA,0.134 ± 0.035

row,Sequence,PBM E-score of 8-mer
1,AAATCCGT,-0.0309 ± 0.033
2,GACTCTCC,-0.206 ± 0.065
3,AGAGTCCA,-0.0614 ± 0.035
4,ATTCGGTG,0.0136 ± 0.061
5,AAGCTACT,0.0134 ± 0.039
6,CTACCGGC,-0.0193 ± 0.1
7,ACCTTGCG,0.318 ± 0.017
8,AAGTCATT,-0.0364 ± 0.011
9,CAATGAGC,-0.00772 ± 0.00032
10,TATAAAAA,-0.255 ± 0.12
11,AGAGGTAG,-0.227 ± 0.024
12,CGGCGTCC,-0.21 ± 0.024
13,CGAGCCCA,-0.139 ± 0.096
14,AGTCGCCC,0.0547 ± 0.015
15,ACCGCTAC,0.0419 ± 0.058
16,CTCGAGAA,0.0154 ± 0.059
17,AGTAGTTA,-0.222 ± 0.061
18,GTAAAACA,-0.0246 ± 0.021
19,AGTCGGAT,-0.175 ± 0.036
20,CGCTATGA,0.0376 ± 0.03
21,ATGCTAGG,-0.274 ± 0.059
22,GCTGGTAA,-0.138 ± 0.021
23,CGGCATCA,0.043 ± 0.011
24,CGTAATGA,-0.117 ± 0.015
25,ATAAGGAT,-0.047 ± 0.0052

row,Sequence,PBM E-score of 8-mer
1,ACAGCTTA,0.192 ± 0.026
2,CTTGAAGA,-0.116 ± 0.033
3,ACTATACA,-0.109 ± 0.036
4,CGAGGGTA,-0.211 ± 0.033
5,TAATATGA,-0.0359 ± 0.048
6,TGATCCAA,0.0181 ± 0.054
7,ATTGCGTA,-0.303 ± 0.074
8,AAGTGGCC,-0.0217 ± 0.037
9,AAGTACTA,-0.147 ± 0.06
10,AATGACGT,-0.0766 ± 0.026
11,ATAGCTAT,-0.2557 ± 0.0024
12,CATCCGCG,0.185 ± 0.047
13,ACGCGTCA,0.318 ± 0.0057
14,GTCTGACA,0.113 ± 0.0026
15,TAACATCA,-0.0199 ± 0.006
16,ACCCAGGG,-0.105 ± 0.0054
17,GAATCCGC,0.0425 ± 0.011
18,TAGGACGA,-0.398 ± 0.01
19,CCGACCGC,-0.0728 ± 0.073
20,AGACCGTG,0.08 ± 0.036
21,ACGTGAGC,0.0515 ± 0.033
22,AGCTCGCC,-0.188 ± 0.034
23,GCATCACA,0.299 ± 0.043
24,GTCTTGCA,-0.125 ± 0.055
25,AATCTACT,-0.126 ± 0.048

row,Sequence,PBM E-score of 8-mer
1,GCATCGAA,-0.268 ± 0.09
2,GCCTACAC,0.137 ± 0.073
3,ATTCGTGG,-0.1 ± 0.036
4,CTGCGGGA,-0.215 ± 0.063
5,TGCGTGAA,0.3936 ± 0.0023
6,CGAAACAG,-0.0595 ± 0.081
7,CAGCTGTC,0.247 ± 0.01
8,AGGTGCAT,-0.00019 ± 0.081
9,GCTACCAC,0.141 ± 0.035
10,AACACCGA,0.228 ± 0.03
11,AAGGGGTA,-0.2 ± 0.05
12,AACTCTCC,-0.064 ± 0.054
13,AGACATGC,-0.0873 ± 0.0045
14,CGCAGATC,-0.0398 ± 0.062
15,CGACTACG,0.0687 ± 0.0023
16,CTGATACA,-0.0236 ± 0.00083
17,AGCCACAC,0.311 ± 0.049
18,AAACTCAT,-0.0314 ± 0.058
19,CGGCGCCG,0.217 ± 0.027
20,TAAACTCA,-0.2 ± 0.037
21,CGAGTCAA,0.00811 ± 0.012
22,ATGCATGA,-0.0376 ± 0.033
23,CTAGACTC,-0.183 ± 0.025
24,AAGCCTAA,-0.216 ± 0.033
25,ATACCGTC,-0.0857 ± 0.022

row,Sequence,PBM E-score of 8-mer
1,AAGTCTCC,-0.00387 ± 0.021
2,CATGAGCA,-0.049 ± 0.047
3,CAATTGTG,0.225 ± 0.058
4,CTTCATTA,-0.242 ± 0.0057
5,AGCTGACG,0.142 ± 0.026
6,GGACCAAC,-0.109 ± 0.068
7,CGACATGA,-0.0342 ± 0.055
8,TAGCTTCA,0.056 ± 0.085
9,CTACTTCC,-0.196 ± 0.069
10,TAGTGATA,0.161 ± 0.081
11,CGAGGTAC,-0.11 ± 0.026
12,AAATGGGC,0.056 ± 0.085
13,ATATTCTA,-0.0979 ± 0.079
14,CATATGTA,-0.129 ± 0.043
15,GACGTAGC,-0.196 ± 0.044
16,ACGCTACG,0.102 ± 0.023
17,CTGTCCTC,0.0372 ± 0.031
18,GTCAGGTA,0.044 ± 0.027
19,ATAGAGCA,-0.208 ± 0.036
20,CGTAAACA,0.277 ± 0.025
21,GTATGTGA,0.256 ± 0.014
22,TCCCTTCA,0.0958 ± 0.018
23,ACACCCAG,0.352 ± 0.017
24,AATAAGGG,-0.1817 ± 0.001
25,CTATCCAA,-0.383 ± 0.079

row,Sequence,PBM E-score of 8-mer
1,AACATCGG,-0.0763 ± 0.15
2,CACATCGG,0.279 ± 0.04
3,GGCACCTA,0.382 ± 0.015
4,AGCATCTA,-0.0669 ± 0.073
5,AGAGAATA,-0.0768 ± 0.025
6,AAACATTG,0.0255 ± 0.053
7,AGTAATTC,-0.219 ± 0.038
8,AGTCGAGC,0.107 ± 0.0035
9,TGTATACA,-0.236 ± 0.0082
10,GTGCATTA,-0.0123 ± 0.027
11,GCAGCCTA,0.1169 ± 0.001
12,ATTTAAGC,-0.224 ± 0.025
13,CGAATCCA,-0.0462 ± 0.039
14,ACTTTGAC,0.134 ± 0.01
15,ATGAAGCA,-0.0756 ± 0.084
16,GATTCCTA,-0.137 ± 0.034
17,ACTAGAAA,-0.163 ± 0.008
18,AACCCAAC,0.0211 ± 0.0073
19,TAGTCCCA,-0.131 ± 0.037
20,AGCGCATG,-0.0989 ± 0.12
21,CATTAGCG,0.121 ± 0.061
22,AGCAGAAA,-0.0706 ± 0.043
23,ATGCTCAG,-0.0846 ± 0.04
24,AGAGATGA,0.0707 ± 0.07
25,CTCAATAC,-0.182 ± 0.029

row,Sequence,PBM E-score of 8-mer
1,GTTCATGA,-0.0117 ± 0.028
2,GGTCAACA,0.114 ± 0.02
3,CATTTTGC,0.0345 ± 0.041
4,CATCAACC,-0.252 ± 0.051
5,AACCAGCG,-0.0824 ± 0.039
6,AGGGATAC,-0.232 ± 0.028
7,GTTGCTGA,0.138 ± 0.024
8,CCTTTTCC,-0.0561 ± 0.086
9,ACAAACAC,0.203 ± 0.03
10,GGAGATGA,-0.127 ± 0.02
11,AAACGAAC,0.011 ± 0.054
12,CGCTACCA,0.271 ± 0.0082
13,TACGAGCA,-0.175 ± 0.078
14,CAACACCA,0.37255 ± 7.8e-05
15,GGTGATGA,0.311 ± 0.0095
16,AAACACGC,0.1542 ± 0.0012
17,CAAGTAGG,0.0636 ± 0.007
18,GACCTCTA,-0.234 ± 0.033
19,GACGATCA,-0.115 ± 0.071
20,ACGTCGCG,0.182 ± 0.037
21,GTCATAAA,-0.00255 ± 0.054
22,GCTTTGGA,-0.0967 ± 0.038

# — the supplement of paper PMC4166925
